{
  "source": "PubChem BioAssay AID588342",
  "about": "(National Center for Advancing Translational Sciences (NCATS), 2011)",
  "note": "About 25,000 (6.9%) of roughly 360,000 compounds were called active. The shares of active, inactive and inconclusive entries below differ from those in the screen. Calls come from the whole dose curve; as a rule, active = well fitted inhibition curve with a large enough effect; inconclusive = small, poorly fitted or top-dose-only effect; inactive = flat fitted curve, though single readings scatter. A potency beside an inconclusive call is a rough fit, not a confirmed value.",
  "data": [
    {"biological_target": "Luciferin 4-monooxygenase (Photinus pyralis) (UniProt P08659)", "sequence (P08659 whole entry, looked up)": "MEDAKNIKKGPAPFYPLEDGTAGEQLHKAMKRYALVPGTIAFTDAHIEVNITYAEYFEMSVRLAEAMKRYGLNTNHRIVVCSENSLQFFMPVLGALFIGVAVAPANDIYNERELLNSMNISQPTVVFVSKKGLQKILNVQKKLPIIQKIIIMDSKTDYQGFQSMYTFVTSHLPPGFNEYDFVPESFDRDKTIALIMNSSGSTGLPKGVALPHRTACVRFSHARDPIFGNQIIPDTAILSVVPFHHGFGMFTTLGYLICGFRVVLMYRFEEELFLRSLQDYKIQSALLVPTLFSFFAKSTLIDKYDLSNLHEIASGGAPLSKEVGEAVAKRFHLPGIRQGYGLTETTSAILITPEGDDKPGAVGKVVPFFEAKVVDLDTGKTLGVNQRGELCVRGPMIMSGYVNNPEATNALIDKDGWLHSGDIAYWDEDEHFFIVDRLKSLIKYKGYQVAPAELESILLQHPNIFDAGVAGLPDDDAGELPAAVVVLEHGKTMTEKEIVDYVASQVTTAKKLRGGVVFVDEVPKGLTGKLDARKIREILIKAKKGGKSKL", "assay": "qHTS profiling assay for firefly luciferase inhibitor/activator using purifed enzyme and Km concentrations of substrates (counterscreen for miR-21 project); note: nearly all actives have a fitted effect of over 55% in size; note: potency is the fitted concentration of half-maximal effect; tags give direction and shape of the fitted curve", "details": "purified FLuc, luminescence inhibition; series mostly up to 57.5 µM", "procedure,_shortened": "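Biochemical qHTS of compounds, final roughly 60 µM downward over six points, against 10 nM purified firefly luciferase using Km concentrations of substrates (10 uM D-luciferin, 10 uM ATP) in Tris acetate pH 7.5 buffer; luminescence output.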", "values": [
      {"compound": "N#Cc1c(NC(=O)C2CCCO2)sc2c1CCCCC2", "note": "(stereo not given)", "Potency": "active: 13.5 µM"},
      {"compound": "COc1cc(C(=O)Nc2ccc(C(=O)O)cc2)ccc1OC(C)=O", "Potency": "inconclusive: 37.9 µM [inhibitor, single point]"},
      {"compound": "COC(=O)c1ccc(NC(=O)c2cccc(Cl)c2)o1", "Potency": "inconclusive: 30.1 µM [inhibitor, partial curve, poor fit]"},
      {"compound": "Cc1ccc(C(=O)NNC(=O)c2ccccc2O)cc1S(=O)(=O)N1CCCCC1", "Potency": "inconclusive: 23.9 µM [inhibitor, single point]"},
      {"compound": "Cc1nc2ccccc2c(=O)n1CCCO", "Potency": "inactive"},
      {"compound": "Cc1c(C(=O)O)cccc1-n1c(C)cc(/C=N/NC(=O)c2cc3ccccc3o2)c1C", "Potency": "inconclusive: 37.9 µM [inhibitor, single point]"},
      {"compound": "CCc1ccc2c(CC(=O)NNC(=O)c3ccncc3)coc2c1", "Potency": "inconclusive: 37.9 µM [inhibitor, partial curve, poor fit]"},
      {"compound": "CCOC(=O)C1CCCN(S(=O)(=O)c2cc3c(cc2C)NC(=O)CO3)C1", "note": "(stereo not given)", "Potency": "inactive"},
      {"compound": "COC(=O)CSc1nc(C)c2ccc(OC)cc2n1", "Potency": "inconclusive: 30.1 µM [inhibitor, single point]"},
      {"compound": "Nc1nc(N)c2sc3nc4c(cc3c2n1)CCC4", "Potency": "inconclusive: 23.9 µM [inhibitor, partial curve, poor fit]"},
      {"compound": "O=C(NCc1cccnc1)C(=O)NCC1OCCN1S(=O)(=O)c1ccc(F)cc1", "note": "(stereo not given)", "Potency": "inactive"},
      {"compound": "O=C(N/N=C/c1cc(Cl)cc([N+](=O)[O-])c1O)c1ccccc1NS(=O)(=O)c1cccs1", "Potency": "inconclusive: 33.8 µM [inhibitor, partial curve, poor fit]"},
      {"compound": "CCn1c(SCC(=O)Nc2cc(C)nn2-c2ccccc2)nnc1-c1cccs1", "Potency": "inactive"},
      {"compound": "CCCCc1ccc(NS(=O)(=O)c2ccc(N3CCCCS3(=O)=O)cc2)cc1", "Potency": "inconclusive: 37.9 µM [inhibitor, partial curve, poor fit]"},
      {"compound": "CC(=O)c1cccc(NC(=O)c2ccoc2C)c1", "Potency": "inactive"},
      {"compound": "CC1(C(=O)NCC2CC2)C=CC2(CCCCC2)N1C(=O)c1ccccc1", "note": "(stereo not given)", "Potency": "inconclusive: 16.9 µM [inhibitor, partial curve]"},
      {"compound": "O=C(CSc1nc(-c2ccccc2)nc2c1Cc1ccccc1O2)Nc1ccc(C(=O)O)cc1", "Potency": "active: 7.57 µM"},
      {"compound": "COc1ccc(-c2nnc(SCC(=O)c3ccc[nH]3)n2-c2ccccc2)cc1", "Potency": "inconclusive: 19 µM [inhibitor, partial curve]"},
      {"compound": "COc1ccc(-c2cc(C(=O)N3CCCc4ccccc43)no2)cc1OC", "Potency": "inconclusive: 23.9 µM [inhibitor, partial curve]"},
      {"compound": "Cc1ccccc1NC(=O)Cn1c(=O)n(CCC(=O)NCc2ccc3c(c2)OCO3)c(=O)c2sccc21", "Potency": "inactive"},
      {"compound": "CC(C)c1ccc(NC(=O)c2ccc3c(c2)C(=O)N(Cc2cccnc2)C3=O)cc1", "Potency": "inconclusive: 3.01 µM [inhibitor, partial curve, poor fit]"},
      {"compound": "O=C1C2CC=CCC2C(=O)N1n1cnnc1", "note": "(stereo not given)", "Potency": "inactive"},
      {"compound": "N#CCC(=O)Nc1ccc(C(=O)OCC(=O)NC2CCCCCC2)cc1", "Potency": "inactive"},
      {"compound": "N#Cc1c(/N=C/c2cccnc2)sc2c1CCCC2", "Potency": "active: 2.69 µM"},
      {"compound": "CCCc1nc(SCC(=O)c2ccc(OC)cc2)c2ccccc2n1", "Potency": "inconclusive: 37.9 µM [inhibitor, partial curve, poor fit]"},
      {"compound": "COc1cccc(NC(=O)Nc2cccc(C(=O)O)c2)c1", "Potency": "active: 0.169 µM"},
      {"compound": "N#C/C(=C\\c1ccc(OC(=O)c2cccs2)cc1)c1nc2ccccc2[nH]1", "Potency": "inconclusive: 2.39 µM [inhibitor, full curve, poor fit]"},
      {"compound": "Cc1onc(-c2ccccc2)c1C(=O)NC(=S)Nc1sc2c(c1C#N)CCC(C)C2", "note": "(stereo not given)", "Potency": "inconclusive: 23.9 µM [inhibitor, single point]"},
      {"compound": "Nc1nc(-c2ccc3c(c2)OCCO3)c(CC(=O)O)s1", "Potency": "inconclusive: 26.9 µM [inhibitor, partial curve, poor fit]"},
      {"compound": "Oc1ccc(-c2csc(Nc3ccccn3)n2)cc1", "Potency": "active: 6.75 µM"},
      {"compound": "COC(=O)[C@H](CCSC)NC(=O)Nc1ccc(OC)cc1", "Potency": "inactive"},
      {"compound": "Cn1c(NN)nc2ccccc2c1=O", "Potency": "inconclusive: 12 µM [inhibitor, partial curve]"},
      {"compound": "CC(C)(C)C(=O)CSc1nnc(Nc2ccccc2)s1", "Potency": "inconclusive: 16.9 µM [inhibitor, partial curve]"},
      {"compound": "Cc1cc(Oc2ccc(C(C)(C)C)cc2)nc(N2CCOCC2)n1", "Potency": "inconclusive: 26.9 µM [inhibitor, partial curve, poor fit]"},
      {"compound": "Cc1cccc(/C=N/N2CCN(c3ccccc3)CC2)c1", "Potency": "active: 7.57 µM"},
      {"compound": "CC(C)(O)[C@H](O)COc1c2occc2cc2ccc(=O)oc12", "Potency": "inconclusive: 23.9 µM [inhibitor, partial curve, poor fit]"},
      {"compound": "O=C(NCCc1ccccc1)C(=O)c1cn(CC(=O)N2CCCC2)c2ccccc12", "Potency": "inconclusive: 26.9 µM [inhibitor, partial curve, poor fit]"},
      {"compound": "NC(=O)c1ccsc1NC(=O)COC(=O)Cc1cccc2ccccc12", "Potency": "inconclusive: 26.9 µM [inhibitor, partial curve, poor fit]"},
      {"compound": "COc1ccc(OCC(=O)N/N=C(\\C)c2cc3ccccc3o2)cc1", "Potency": "active: 1.51 µM"},
      {"compound": "COC(=O)C1CCN(S(=O)(=O)c2ccc(OC)cc2)CC1", "Potency": "inactive"},
      {"compound": "COc1cc(/C=C2\\CCCc3c2nc2ccccc2c3C(=O)O)cc(Cl)c1O", "Potency": "inconclusive: 37.9 µM [inhibitor, single point]"},
      {"compound": "O=C(C[n+]1cc(-c2ccc(Cl)cc2)n2c1CCCCC2)c1ccccc1", "Potency": "inconclusive: 26.9 µM [inhibitor, single point]"},
      {"compound": "CC1(C)Oc2ccc3ccc(=O)oc3c2[C@@H](O)[C@H]1O", "Potency": "inactive"},
      {"compound": "Cc1ccc(CCNC(=O)c2ccc(CS(=O)(=O)Cc3cccc(C)c3)o2)cc1", "Potency": "inconclusive: 37.9 µM [inhibitor, partial curve, poor fit]"},
      {"compound": "O=[N+]([O-])c1nn(-c2ccc3c(c2)OCCO3)n(O)c1=Nc1ccc(Cl)cc1", "Potency": "inconclusive: 23.9 µM [inhibitor, partial curve, poor fit]"},
      {"compound": "CCOc1ccc(C(=O)NC2CCN(C(=O)Nc3ccc(F)cc3)CC2)cc1", "Potency": "inactive"},
      {"compound": "COc1ccc(-c2csc(Nc3cc(C)ccn3)n2)cc1C", "Potency": "active: 8.49 µM"},
      {"compound": "Cc1cccc(C)c1NC(=O)CNC(=O)CNC(=O)c1ccc2c(c1)OCO2", "Potency": "inactive"},
      {"compound": "CCOC(=O)c1sc(NC(=O)CCCn2nc([N+](=O)[O-])cc2C)c(C(=O)OCC)c1C", "Potency": "inactive"},
      {"compound": "O=C(c1cc(COc2ccc(F)cc2Cl)on1)N1CCCC(OCc2cccnc2)C1", "note": "(stereo not given)", "Potency": "inconclusive: 37.9 µM [inhibitor, partial curve, poor fit]"},
      {"compound": "COc1ccc(-c2nc3cc(C(C)C)ccc3o2)cc1NC(=O)c1ccc(C)c(Cl)c1", "Potency": "inactive"},
      {"compound": "CCOc1ccc(C(=O)Nc2ncn[nH]2)cc1", "Potency": "inconclusive: 37.9 µM [inhibitor, partial curve, poor fit]"},
      {"compound": "O=C(CS(=O)(=O)c1ccccc1)N(CCCN1CCOCC1)c1nc2c(F)cccc2s1", "Potency": "inconclusive: 21.3 µM [inhibitor, partial curve, poor fit]"},
      {"compound": "O=C(NCCN1CCN(C(=O)c2ccc([N+](=O)[O-])cc2)CC1)C(=O)Nc1ccc(F)cc1", "Potency": "inactive"},
      {"compound": "Cc1cccc(NC(=O)CN2CCSc3ccccc32)c1", "Potency": "inconclusive: 26.9 µM [inhibitor, single point]"},
      {"compound": "Cc1cnn(C(=S)NCCc2ccccc2)c1", "Potency": "active: 19 µM"},
      {"compound": "O=C(CSc1ccc(-c2ccc(F)cc2)nn1)Nc1ccc2c(c1)OCCO2", "Potency": "inconclusive: 10.7 µM [inhibitor, partial curve]"},
      {"compound": "CC(C)CC(=O)N/C(N)=N/c1nc2ccccc2o1", "Potency": "active: 8.49 µM"},
      {"compound": "CC(=O)NCCc1nc2cc(NC(=O)c3cccc([N+](=O)[O-])c3)ccc2n1C", "Potency": "inconclusive: 16.9 µM [inhibitor, partial curve]"},
      {"compound": "O=C(CCCN1C(=O)/C(=C\\c2ccccc2)SC1=S)Nc1ccc(O)cc1", "Potency": "inconclusive: 37.9 µM [inhibitor, partial curve, poor fit]"},
      {"compound": "CCN1CCN(Cc2ccc(NC(=O)c3ccc(C)c(NC(=O)c4nccnc4N)c3)cc2C(F)(F)F)CC1", "Potency": "inconclusive: 33.8 µM [inhibitor, partial curve, poor fit]"},
      {"compound": "Cc1cccc(C(=O)Nc2ccc3ccccc3c2)c1", "Potency": "active: 2.39 µM"},
      {"compound": "CCN(c1ccc(NC(=O)c2ccc(Cl)nc2)cc1)C(C)C", "Potency": "inconclusive: 21.3 µM [inhibitor, single point]"},
      {"compound": "O=C(O)c1cccc(CN2C(=O)SC(Nc3cccc4ccccc34)C2=O)c1", "note": "(stereo not given)", "Potency": "inconclusive: 26.9 µM [inhibitor, single point]"},
      {"compound": "Cc1ccc(CNC(=O)C2CCN(S(=O)(=O)c3c(C)noc3/C=C/c3c(C)cc(C)cc3C)CC2)cc1", "Potency": "inactive"},
      {"compound": "Cc1ccc(C(=O)Nc2cccnc2Oc2ccc(Cl)cc2)cc1", "Potency": "inconclusive: 30.1 µM [inhibitor, partial curve, poor fit]"},
      {"compound": "Cc1cc(C)c2nc(/N=C(\\N)NC(=O)c3ccccc3)nc(C)c2c1", "Potency": "inconclusive: 8.49 µM [inhibitor, partial curve]"},
      {"compound": "COc1ccc(/C=N/NC(=O)CSc2ccccn2)cc1OC", "Potency": "active: 19 µM"},
      {"compound": "Cc1cc(N2CCOCC2)nc2cc(O)ccc12", "Potency": "inconclusive: 21.3 µM [inhibitor, partial curve]"},
      {"compound": "COc1cc(/C=N/NC(=O)c2nc(C)cc(C)n2)ccc1O", "Potency": "inconclusive: 30.1 µM [inhibitor, partial curve, poor fit]"}
    ]}
  ]
}
